From the supplement of paper PMC11417369
± gives the standard deviation of the averaged measurements. This is one part of the list.

Test system: PfAP2-I AP2 domain 3 (GST-tagged)
Experiment: gcPBM binding intensity (ln(normalized median fluorescence intensity)); higher = stronger DNA binding
In short: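 DNA-binding domains from P. falciparum, fused to GST and produced in E. coli, were put on an Agilent 4 × 180k double-stranded probe array for 1 h in 1× PBS holding 1% milk, 0.2 mg/ml BSA, 0.5% salmon testes DNA and 0.03% Triton X-100. Probes were primer-extended, 36 bp long and drawn from intergenic genomic regions, with negative controls included. After Alexa488 anti-GST antibody detection and a 488 nm scan, binding intensity was set as the highest Masliner-normalised natural-log median intensity across replicate spots of either probe orientation.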

Row | Sequence | gcPBM binding intensity (ln)
1 | GGTTCATTTATATGGAGTACAAAAAATATGTATATA [XGTACX_site8209] | 7.93 ± 0.37
2 | AAATAATATAAATACACACACACATATATAAATACA [CACACA_site4465] | 7.79 ± 0.59
3 | TAAAGTTATATATTATGTACATATTTGTATACATTT [XGTACX_site2516] | 7.66 ± 0.35
4 | TTTTTTTATACAATTTTATATATTAAATATTATAAT [CACACA_negctrl_site226] | 7.62 ± 0.52
5 | AAAGAAAACGGACTTTGTACTTAAATATAATATAAA [XGTACX_site8585] | 7.69 ± 0.34
6 | AAATATAGTATTAAAACACACATTTATATAAAAAGG [CACACA_site1482] | 7.72 ± 0.53
7 | TGAACTCATAGGAAAACACACATATGTGTAATATAT [CACACA_site4267] | 7.95 ± 0.61
8 | AACAAAAAAACAAACACACACACACGCATATTTATA [CACACA_site7680] | 7.8 ± 0.46
9 | AAAAACAACACAGATAAATTAACACACACACACATA [XGTACX_negctrl_site588] | 8.51 ± 0.16
10 | TTATGTGATTTTAATTGTACATAAATATTTGTTAAC [XGTACX_site3489] | 7.82 ± 0.23
11 | TATATACTCAGACATACACACAAATAAAAAAACACC [CACACA_site5820] | 8.97 ± 0.11
12 | CACGCATACAGACACACACACACACGGATATAAATA [CACACA_site6445] | 8.09 ± 0.33
13 | TATTTGTATAAATAAAAATAATATATATCAAATAAC [CACACA_negctrl_site218] | 7.57 ± 0.55
14 | AACACCCACAGACACACACACAAAAATGATTAAAAA [CACACA_site2433] | 8.11 ± 0.13
15 | ACAAAAATATTATATTGTACATTATTAGTTCATATT [XGTACX_site6750] | 7.58 ± 0.4
16 | TTTTTATATAAATAATGTACATTTGGTTTTATTATA [XGTACX_site2125] | 7.76 ± 0.43
17 | AAAAAAAAAAAACACACACACACACCGAAATATATA [CACACA_site4261] | 7.82 ± 0.33
18 | TTCAGCATAAACACTTGTACATATATACTAAAAATT [XGTACX_site7272] | 7.91 ± 0.4
19 | AATTTTTTTTTTTTTTTTTCTTTTGTAATAAACCAT [XGTACX_negctrl_site334] | 7.63 ± 0.36
20 | ATTTCCCCAACGTGGGTGCATATATTTATGTGTGAA [GTGCAC_site9439] | 10.9 ± 0.82
21 | ATTATATTTTTAAGTACACACATATAAATAAATATA [CACACA_site7682] | 8.11 ± 0.19
22 | TATTAATTATTTTACTGTACTAATAATACTTTTATT [XGTACX_site2179] | 7.93 ± 0.39

Row | Sequence | gcPBM binding intensity (ln)
23 | ATTATGTGAGGTAACTAAATATGTACGTAACGAAGA [CACACA_negctrl_site1400] | 8.27 ± 0.28
24 | ATATATATATATGTGTGTACTTAAAAATATAATGCA [XGTACX_site7753] | 9.55 ± 0.085
25 | TAATGTATAATTAATCGTACATTAGATTGTTGTGTT [XGTACX_site52] | 7.58 ± 0.23
26 | ATATATATATATTATACACACGCCGAAAAAATAAAA [CACACA_site1551] | 8.94 ± 0.11
27 | TTTATTTTATCTAAAAGTACTTAAATTAGTGTATTT [XGTACX_site5696] | 7.58 ± 0.39
28 | TTACGAAAAAACAAGAGTACATGATGTTATAAAATA [XGTACX_site1412] | 8 ± 0.57
29 | CGTTGTAGGGAATGTAGTACAGTTATTATTTTATTA [XGTACX_site2429] | 7.88 ± 0.24
30 | TATATATATAAATACACACACACACCGATATATATA [CACACA_site5408] | 8.59 ± 0.43
31 | TCATACATTTTCAGCCTGCACTTATATTTAATAATA [GTGCAC_site9863] | 8.73 ± 0.61
32 | TATCAAATCCAAAGGGGTACATTTTGTTGTCCTAAT [XGTACX_site5575] | 7.75 ± 0.4
33 | TAGCTCGTTCGGAGCACACACATATAAATAAATATA [CACACA_site7002] | 7.67 ± 0.31
34 | AATACTCTATTTTATAGTACATATATTATTAATCAC [XGTACX_site6622] | 7.71 ± 0.35
35 | GAAAAAAAAAAAAATACACACAAATTGGTATATAAT [CACACA_site4369] | 7.47 ± 0.54
36 | TAGGGATTATACCACACACACATACCCATAAATATA [CACACA_site5719] | 7.87 ± 0.31
37 | ATAGACAGCGCACAAACACACAAACACGCACGCACA [CACACA_site6349] | 9.3 ± 0.071
38 | TGTTTTTTATTTAATTGTACGAATTAAAAAAAATAA [XGTACX_site3009] | 7.86 ± 0.42
39 | TTCCAACCATAGTATTCACACATTGTTTTATTCCAT [CACACA_site4927] | 8.05 ± 0.4
40 | TTTTTACTAATAAGATGTACATATATCCTAAGCATA [XGTACX_site251] | 7.92 ± 0.64
41 | TTTCGTAAACAAATTTGTACGTACAAATTTATAAAT [XGTACX_site8175] | 8.34 ± 0.13
42 | ATAATATAATAAACGTGTACACAATTAAATTATTAT [XGTACX_site3491] | 8.21 ± 0.45
43 | TACATACATACATACACACATACATATATATATATA [CACACA_site1387] | 9.33 ± 0.31
44 | TCTTTTATTAGTAAAAGTACTTATATAAATATTATA [XGTACX_site5099] | 7.6 ± 0.21

Row | Sequence | gcPBM binding intensity (ln)
45 | TAAGGAAAAAATTATAGTACATAATAAATGTATATA [XGTACX_site8328] | 7.58 ± 0.38
46 | ATAAATATATTTCACGCACACACACCCCAAATAAAT [CACACA_site9272] | 8.74 ± 0.42
47 | CAAATTTTTTATTAAACACACAAACATATATTTATA [CACACA_site6992] | 7.48 ± 0.44
48 | AAAAAAGAAAAGAAATCATGAAAGAATCAAATAAAG [CACACA_negctrl_site1771] | 7.53 ± 0.45
49 | TTTTTATATATATTCTCACACACTTTTTATTTTAAC [CACACA_site657] | 7.97 ± 0.64
50 | CATAATATATTTTATGCATGCAAAGCAACCTTTTGA [TGCATGCA_site715] | 7.83 ± 0.81
51 | TTTTTTGTTATATTTGTGCGCAAAAATTGCTGCTTG | 8.62 ± 0.72
52 | TATTAACAAAATTTTTAACACACAAAAAAAAAAAAA [CACACA_site8542] | 8.04 ± 0.73
53 | TATTTATTTAAAGGCACACATATTTTTATACTTTCT [CACACA_site3163] | 8.73 ± 0.21
54 | ATTATATATATATATAAACACACATAAATATAAATA [CACACA_site8291] | 7.53 ± 0.48
55 | AAAATTTATGTAAAATGTACATACATAAATAAAGAT [XGTACX_site4339] | 8.08 ± 0.68
56 | TTTGTAAAATAATATCTTTCATGTCCTTACTAATTA [GTGCAC_negctrl_site145] | 7.33 ± 0.59
57 | TAAAAGTTATAAGAGTGTACGTATATTTATATATCA [XGTACX_site2972] | 7.85 ± 0.34
58 | TTATTATATTCTCCTTCACACACAAAAATATTTCAT [CACACA_site8738] | 8.12 ± 0.52
59 | TGAAAAATTACAAAAATAATAAAATGAAATAATAAA [GTGCAC_negctrl_site53] | 7.54 ± 0.33
60 | TTTTAATAACCAATCCGTACATATAATCTTTATATT [XGTACX_site536] | 8 ± 0.028
61 | TGGAAAAATAGGCACACACACATATATACATATATA [CACACA_site1297] | 7.96 ± 0.35
62 | AGGACTAATATTTGAACACACATATAACATATACAT [CACACA_site7803] | 7.78 ± 0.67
63 | AACTATAAATATAAATGTACACATATGTAATATATA [XGTACX_site6085] | 7.74 ± 0.34
64 | CTTTTAAATTATTTTTGTACATAATTATATATATAT [XGTACX_site4128] | 8.77 ± 0.17
65 | TACTGTTTAAAATATAAACACACATTGTTTGCTTTA [CACACA_site8358] | 7.76 ± 0.38
66 | AAAAGGAAAATTTTCTTAGTAACTGCATTAAGAGAT [GTGCAC_negctrl_site675] | 9.37 ± 0.13

Row | Sequence | gcPBM binding intensity (ln)
67 | AAGTATAACCTTTATAATAATGACATGACCGATTTT [CACACA_negctrl_site395] | 7.46 ± 0.55
68 | AAGCATATTATAAACACACACTGTATAAAGATATAT [CACACA_site6277] | 7.66 ± 0.67
69 | ATATAACGAATAATTACACACTATAAAAAAAGATCT [CACACA_site2862] | 7.68 ± 0.69
70 | TATAACCGAATGTGTACACAAAATAATGTTATATAT [CACACA_site5627] | 8.48 ± 0.099
71 | ATAATACGAATTTGTAGTACATTTATAATAACATGA [XGTACX_site2614] | 7.91 ± 0.2
72 | TAAAAAACTTCGTGTTCACACATGTACTATATTATT [CACACA_site4796] | 7.71 ± 0.43
73 | ACCCATAAGATAATTACACACAATACATCCCTATAT [CACACA_site5262] | 7.83 ± 0.67
74 | TTTTTTTTTTTTTGTTGTACATTAAATATATTATTA [XGTACX_site7254] | 8 ± 0.76
75 | TGAATGTAAGAAAATACACACTAGTATAGTAACACC [CACACA_site5131] | 8.14 ± 0.73
76 | TTTTTATTACTTCTCTGTACTCAGGAAAATAAATAT [XGTACX_site2092] | 7.9 ± 0.44
77 | TTGATTATAATTAGTACACACAAAATACATGCGGGG [CACACA_site2277] | 8.92 ± 0.21
78 | AAATATATAATACATATGTAATATGCATATATATAT [GTGCAC_negctrl_site450] | 9.05 ± 0.34
79 | TAAAATAAAACAAACACACACACACCCCCACAAAAA [CACACA_site3850] | 10.4 ± 0.19
80 | TATTTACATGTAAAAGGTACACACATTATATATACA [XGTACX_site2157] | 7.93 ± 0.3
81 | TTTATTATTTTTTGTAGTACTTTATATAAAAGTTCT [XGTACX_site4494] | 8.07 ± 0.31
82 | ATACACTTTTATATATCAATACATTATGTATTAAGT [CACACA_negctrl_site421] | 7.88 ± 0.53
83 | CCTCTTTATTTTAATTGTACATTTTTGTAGGTTTTT [XGTACX_site7130] | 8.19 ± 0.66
84 | TCCTTTTTTTTGTAATGTACTTAGTTTGGTTATATG [XGTACX_site8208] | 7.84 ± 0.57
85 | ATGTATATATATATATGTACTAATTAGTAATTTACG [XGTACX_site6276] | 7.87 ± 0.32
86 | AAAACAAACCCATTTACACACATAAATAAATCAATT [CACACA_site6126] | 7.67 ± 0.48
87 | AAAAAGAAGATATATACACACCAAAAAAAAAAAAAA [CACACA_site7471] | 8 ± 0.55
88 | AATATATATATACATACATGCATACATATATATATA [TGCATGCA_site784] | 9.4 ± 0.3
